# Assay results taken from the supplement of paper PMC4166925.
# ± gives the standard deviation of the averaged measurements. Over roughly 33,000 sequences, “E-score (dimensionless, -0.5 to 0.5)” has its median near -0.046; the highest 2% begin near 0.36. This is one part of the list.
# System: T1, SpTbr T-box DNA-binding domain (GST fusion)
# T1 sequence: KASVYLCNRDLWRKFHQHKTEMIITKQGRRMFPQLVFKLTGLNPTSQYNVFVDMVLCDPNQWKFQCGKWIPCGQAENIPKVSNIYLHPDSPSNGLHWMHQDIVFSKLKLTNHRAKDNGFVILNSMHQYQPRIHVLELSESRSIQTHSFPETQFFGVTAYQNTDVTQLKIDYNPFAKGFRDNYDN
# Experiment: PBM E-score of 8-mer (E-score (dimensionless, -0.5 to 0.5)); Tbr is Tbrain of the sea star Patiria miniata (Pm) or the sea urchin Strongylocentrotus purpuratus (Sp); higher = stronger binding preference; most listed sequences are background and not binding sites
# Conditions: the construct has about 5 more residues each side
# How it was run: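 GST-fused Tbr T-box DNA-binding domains (the whole T-box plus about five flanking residues) were expressed in BL21 E. coli at 20 °C and purified by glutathione affinity chromatography. Universal Agilent oligonucleotide arrays were made double-stranded by primer extension, incubated with 200 nM protein in PBS (pH 7.5), then scanned and quantified. Every ungapped 8-mer was scored from probe intensities. The Universal PBM Analysis Suite gave each word an enrichment E-score, averaged over duplicate arrays.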
row,Sequence,PBM E-score of 8-mer
1,AGTTCACG,0.338 ± 0.049
2,CCTGGCGC,0.273 ± 0.0081
3,CCGACAAA,0.0247 ± 0.0091
4,CCGAGAAG,-0.00438 ± 0.03
5,CAACTCCC,-0.0195 ± 0.00078
6,CGCTTCGC,0.32 ± 0.039
7,AAGTTCAC,0.179 ± 0.052
8,CGGTGAGC,0.0357 ± 0.021
9,ATAGTGTC,0.272 ± 0.07
10,CGCAAGTA,0.164 ± 0.014
11,AACCGAAC,-0.157 ± 0.024
12,CCGCTCGA,-0.129 ± 0.018
13,CCTGTCTA,-0.164 ± 0.019
14,AATGGACA,-0.0107 ± 0.054
15,GCGGAGAA,0.059 ± 0.053
16,TGTTATAA,0.21 ± 0.085
17,ATTCACGG,0.259 ± 0.00064
18,GTTAAGAA,0.0677 ± 0.082
19,AGCTAGTG,0.109 ± 0.038
20,CCTCGTGA,0.122 ± 0.019
21,AACCCAAT,-0.307 ± 0.013
22,CAACCCAC,0.0871 ± 0.05
23,CCCTGTAC,-0.0689 ± 0.075
24,AACACTTC,0.407 ± 0.0093
25,ACCACCCT,0.0155 ± 0.074

row,Sequence,PBM E-score of 8-mer
1,ATCGGCAC,0.138 ± 0.013
2,CTATGGGC,-0.182 ± 0.008
3,CCCCGCGC,0.0261 ± 0.1
4,GCCCGGGA,-0.206 ± 0.098
5,CACGTATG,0.164 ± 0.0055
6,CGGAATCA,-0.103 ± 0.064
7,GGCCTTCA,-0.0525 ± 0.033
8,AAATGGAG,-0.0892 ± 0.0065
9,CGTACCGC,0.011 ± 0.031
10,ACACGGGA,-0.0309 ± 0.016
11,AACCGACA,0.151 ± 0.061
12,CAATTTGG,-0.0877 ± 0.012
13,GCTTGTCA,0.12044 ± 2.8e-05
14,CTCCCACA,0.111 ± 0.079
15,AGCCTACC,-0.245 ± 0.012
16,CGTGTCGA,0.264 ± 0.013
17,GCAATAAA,-0.0966 ± 0.036
18,AATATACG,-0.167 ± 0.12
19,CATAACTC,-0.179 ± 0.0028
20,CAGGCAAC,-0.0575 ± 0.088
21,ATAAATTC,-0.0229 ± 0.07
22,AACAAGGT,0.271 ± 0.009
23,AAGTCTAC,0.0745 ± 0.011
24,CCGCACTC,0.108 ± 0.012
25,CGCATATC,-0.0822 ± 0.013

row,Sequence,PBM E-score of 8-mer
1,CAGGCTAC,-0.221 ± 0.014
2,CTGGTCAC,0.23 ± 0.0071
3,GCCCCAGA,0.00354 ± 0.036
4,CCACACCC,0.414 ± 0.024
5,CATGATCG,-0.0549 ± 0.084
6,TACTCCCA,-0.178 ± 0.016
7,ACCGGACA,-0.114 ± 0.033
8,CGGCTAGA,-0.0792 ± 0.016
9,CAAAGCCC,-0.264 ± 0.033
10,AGGAGTTG,0.224 ± 0.013
11,ACGTGGAC,-0.0195 ± 0.032
12,AAGCATAT,-0.0864 ± 0.031
13,AACCTTCA,-0.0641 ± 0.013
14,AAGATACT,-0.301 ± 0.035
15,AATGTGGC,0.219 ± 0.02
16,ACCCTCAG,-0.0635 ± 0.019
17,GCGAGCGA,0.187 ± 0.061
18,ATCGCATG,0.0472 ± 0.044
19,ATAATGTG,0.24 ± 0.09
20,CGTATAAG,-0.104 ± 0.021
21,ATCTGACG,0.0261 ± 0.029
22,ACGACAGC,0.0353 ± 0.031
23,AATAGATT,-0.154 ± 0.049
24,CGATTAAG,-0.0402 ± 0.044
25,CACCCTAG,0.189 ± 0.083

row,Sequence,PBM E-score of 8-mer
1,ATCCAGAC,-0.107 ± 0.045
2,GCACCAAA,0.0453 ± 0.016
3,CTTAGTAC,-0.196 ± 0.031
4,AGAGGTGA,0.298 ± 0.023
5,AGTTAATC,-0.105 ± 0.081
6,AGTCAACG,0.0156 ± 0.056
7,ATGGAACG,-0.2064 ± 0.0019
8,GAAAACAC,0.217 ± 0.014
9,AGTTGCGG,0.126 ± 0.029
10,ACGCCCTA,0.141 ± 0.043
11,AGCCGTGA,0.29 ± 0.0074
12,ACAGTTAA,0.179 ± 0.066
13,ACGGGAGG,-0.125 ± 0.036
14,CAACGAAA,0.0103 ± 0.014
15,GTTAATCA,0.161 ± 0.046
16,ATTAGGAC,-0.126 ± 0.026
17,TCTTACAA,-0.309 ± 0.041
18,GTGTTCCA,0.125 ± 0.037
19,CCAAGTTC,-0.00426 ± 0.02
20,CGGCCCTA,-0.211 ± 0.0076
21,GCACCAGC,0.141 ± 0.052
22,GTAAACTA,-0.0769 ± 0.084
23,GCCGCTCA,-0.0198 ± 0.02
24,GTCACCTA,0.392 ± 0.017
25,GTCAGTCA,-0.0606 ± 0.066

row,Sequence,PBM E-score of 8-mer
1,CTGTATAC,0.0873 ± 0.038
2,ACTTAATC,-0.0449 ± 0.025
3,ACGATTGC,0.116 ± 0.027
4,GGCATCAC,0.281 ± 0.006
5,GGTATCAC,0.2483 ± 0.00035
6,GTACAGCA,-0.0888 ± 0.017
7,ATACACAT,0.0774 ± 0.0097
8,ACAGATAC,-0.11 ± 0.068
9,AGGTTTTC,-0.125 ± 0.03
10,AGCCTAGG,-0.0802 ± 0.019
11,AATTCGGT,-0.223 ± 0.018
12,ACCTTAAA,-0.103 ± 0.071
13,GACGGTTA,0.0394 ± 0.071
14,GAATAATA,-0.2 ± 0.017
15,ACAAGGAT,-0.118 ± 0.021
16,CTACGTAC,-0.143 ± 0.072
17,ACGGAACC,-0.0857 ± 0.033
18,CTGGTGAA,0.0503 ± 0.11
19,CATTATCG,0.0371 ± 0.076
20,ATCGGTCA,-0.0165 ± 0.089
21,AAAGCGAC,0.0882 ± 0.063
22,ATAAAAAG,-0.0115 ± 0.068
23,GGGAATAA,-0.187 ± 0.022
24,CCATCGCC,0.115 ± 0.0031
25,CACGGTGC,0.167 ± 0.04

row,Sequence,PBM E-score of 8-mer
1,ACGGGGGA,-0.25 ± 0.12
2,ACGACCCG,0.0339 ± 0.023
3,CCTATACA,-0.228 ± 0.019
4,CGTCCCCA,0.0711 ± 0.057
5,GGATTTGA,-0.2 ± 0.037
6,CTCTGCAC,0.0981 ± 0.022
7,AAAGCACT,-0.0204 ± 0.038
8,AATACGCC,-0.109 ± 0.026
9,CCGCTATC,0.159 ± 0.0031
10,GCTGGCCC,-0.109 ± 0.074
11,CTTTACAC,0.337 ± 0.034
12,AGATATGC,-0.0661 ± 0.015
13,AAGCGTCC,-0.17 ± 0.064
14,CAGCAGAG,-0.0309 ± 0.05
15,AAGGTACA,-0.225 ± 0.024
16,AAAAGTCA,-0.0932 ± 0.033
17,CGCTAAAG,0.303 ± 0.056
18,ACTTGTGC,-0.00268 ± 0.023
19,CAAAGAGA,-0.0571 ± 0.0022
20,AAATCCTC,-0.163 ± 0.02
21,ATAACTCC,-0.147 ± 0.029
22,TCGTTGAA,-0.0366 ± 0.034
23,CATATACA,-0.00532 ± 0.1
24,CTAGGTAC,-0.0845 ± 0.026
25,GGATGCCC,0.00449 ± 0.079

row,Sequence,PBM E-score of 8-mer
1,ACCGAGCT,-0.191 ± 0.053
2,ATGGTCAA,-0.0272 ± 0.11
3,CGCAGACA,0.173 ± 0.02
4,CATAGTGA,0.102 ± 0.03
5,CATCCCAG,-0.0881 ± 0.028
6,ATATTCCA,-0.124 ± 0.0019
7,CTGCACCC,-0.0261 ± 0.075
8,ATGACGGC,0.00549 ± 0.0075
9,CGAGGAAA,-0.155 ± 0.09
10,CTATTTTC,0.103 ± 0.0057
11,GCGCTGAC,0.183 ± 0.066
12,AGGCGCAT,-0.182 ± 0.024
13,AGTCACGG,-0.193 ± 0.0098
14,CTAATTCC,-0.108 ± 0.0076
15,CACACGCC,0.278 ± 0.014
16,GTCTTCTA,-0.215 ± 0.0051
17,CGCTTTGC,-0.101 ± 0.0023
18,AGAAAGGG,-0.172 ± 0.014
19,GGCTAATA,-0.343 ± 0.037
20,CAAGCGCG,0.219 ± 0.045
21,AGGAGGTG,0.391 ± 0.03
22,ACAAGCTG,-0.0789 ± 0.095
